Results from PubChem BioAssay AID1508623 (National Center for Advancing Translational Sciences (NCATS), 2021).
About 450 (0.94%) of roughly 48,000 compounds were called active. Roughly 19% stayed inconclusive and do not appear here. Calls follow the shape of the dose curve; as a rule, active = well fitted inhibition curve with a large enough effect; inconclusive = small, poorly fitted or top-dose-only effect; inactive = no such curve, though single readings can be large or run the other way. Some of the results follow.

Experiment: Primary qHTS for Identification of Small Molecule Inhibitors of Huntingtin Promoter Activity; also: nearly all actives have a fitted effect of over 50% in size
Conditions: HEK293 HTT promoter firefly luciferase reporter (activity 0% = vehicle and -100% = no light), 24 h; series mostly up to 57.5 µM; activity change, negative = inhibition: at the top concentration
In short: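 HEK293 luciferase promoter-reporter cells (2,500/well) plated 24 h, then compounds added at up to 57.5 uM final for 24 h at 37 °C. Firefly luminescence by Dual-Glo, normalized to vehicle (0%) and zero RLU (-100%).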

Activity change, negative = inhibition, inactive:
Cc1ccc(CN2CCCn3nc(C(=O)NCCC(C)C)cc3C2=O)cc1 -22.4%
Cc1ccc(S(=O)(=O)N2CCC(Oc3ccc(-n4cnnn4)cc3)CC2)cc1 -2.78%
COc1ccccc1-n1cc(-c2ccc(C)cc2)nc1S(=O)(=O)CC(=O)Nc1ccccc1C(F)(F)F -7.71%
COc1ccc(CNCCSc2nnnn2-c2ccccc2)cc1 -25.4%
CCc1ccc(-n2nnc(-c3nc(-c4ccccc4)no3)c2C)cc1 54.1%
COc1ccc(CCNC(=O)c2ccc3c(c2)N(Cc2cccc(C)c2)C(=O)c2ccccc2S3(=O)=O)cc1OC 7.97%
COc1ccccc1NC(=O)CSc1nnc(-c2cccc(Cl)c2)o1 17.3%
CCOc1ccccc1-c1nc(-c2ccc(-c3ccccc3)nc2OCC)no1 -9.28%
CCn1cc(S(=O)(=O)c2cc(C)cc(C)c2)c(=O)c2cc(F)c(N3CCOCC3)cc21 -13.2%
Cc1ccc(Nc2c3c(nc4nncn24)CCC3)cc1 -22.2%
Cc1cc(C)cc(-n2cnc3cc(C(=O)NCCc4ccccc4)ccc32)c1 -12.6%
COc1cc(NC(=O)Cn2c(SCc3ccc(F)cc3)nc3cccnc32)cc(OC)c1 -8.99%
Cc1ccc(CCNC(=O)CCc2cn(Cc3ccccc3C)c3ccccc23)cc1 -23.1%
O=C(c1cccc(Cl)c1)n1nc(-c2ccco2)nc1NCc1cccs1 24.2%
O=C(CNC(=O)c1ccccc1Cl)OCc1cc(=O)n2ccsc2n1 1.29%
Brc1csc(CN2CCc3nc(Nc4ccccc4)ncc3C2)c1 0.557%
Cc1cccc(NC(=O)c2cc(S(=O)(=O)N3CCCCC3)c[nH]2)c1C -9.89%
Cc1cc(C)cc(OCC(=O)NCC(c2ccc(Cl)cc2)N2CCCCC2)c1 (centres undefined) 2.45%
Cn1c(=O)c2c(n3c4ccccc4nc13)NC(=O)CC2c1ccccc1F (centres undefined) -21.5%
CCc1nnc2c(Nc3ccc(Br)c(C)c3)nc3ccccc3n12 -8.09%
COc1ccc(S(=O)(=O)N2CCN(c3ccc(F)cc3)CC2)cc1-c1noc(C)n1 -17.3%
CCc1ccccc1NC(=O)Cn1nnc(C(=O)OC)c1C(=O)OC -11.5%
CCN(CC)S(=O)(=O)c1ccc2c(c1)N(CC(=O)Nc1c(C)cccc1C)C(=O)CO2 -11.9%
COc1ccc(OC)c(N(CC(=O)NCc2ccccc2)S(=O)(=O)c2ccccc2)c1 -16.9%
CCc1ccc(NCc2cc3cc4c(cc3n(CC(=O)Nc3ccc(Cl)cc3)c2=O)OCO4)cc1 -15.5%
COc1ccccc1CCNC(=O)c1ccc2c(c1)c(C)c(C)n2C 8.93%
Cc1cc(S(=O)(=O)Nc2cccc(C(=O)O)c2)c(C)c(S(=O)(=O)c2ccccc2)c1 -15.4%
COC(=O)c1cc(NC(=O)CCc2c(C)nc3c4c(C)cc(C)nc4nn3c2C)cc(C(=O)OC)c1 -18.6%
CCOC(=O)c1sc(N2C(=O)c3oc4cc(C)c(C)cc4c(=O)c3C2c2cccc(O)c2)nc1C (centres undefined) 3.89%
O=C1NC(=O)C(=Cc2ccc3nccnc3c2)S1 12.9% [at 25.2 µM]
CC1CCN(c2nc3c(S(=O)(=O)c4ccccc4)nnn3c3ccsc23)CC1 -9.99%
Oc1c(I)cc(I)c2cccnc12 -2.21%
COc1ccc(-c2nc(C)c(CCNC(=O)C(=O)Nc3cccc(F)c3)s2)cc1OC 5.59%
COc1ccc(CCNC(=O)c2nn(-c3ccc(C)cc3)c(=O)c3c2c2ccccc2n3C)cc1OC -7.19%
O=C(CC1N=C2c3ccccc3N=C(SCC(=O)Nc3cccc(C(F)(F)F)c3)N2C1=O)NCc1cccs1 (centres undefined) -21.5%
CCOC(=O)CCn1nc(-c2ccc(C)cc2)c2ccccc2c1=O -32.3%
Cc1ccc(C)c(Cn2c(=O)n(Cc3ccccc3)c(=O)c3c(C)c(C)sc32)c1 2.23%
CCc1ccccc1NC(=O)Nc1nnc(N2CCCC2)s1 -13.4%
CCc1ccc(CN(Cc2ccco2)C(=O)c2ccccc2Cl)cc1 -4.73%
COc1cc(NC(=O)Cn2c(=O)n(Cc3ccccc3OC)c(=O)c3cccnc32)cc(OC)c1 -26.7%
Cc1ccc(C(=O)COC(=O)c2cc(-c3ccccc3)nc3ccccc23)cc1C 32.7%
Cc1ccc(C)c(N2CCN(S(=O)(=O)c3ccc4oc(=O)c5ncn(C)c5c4c3)CC2)c1 -11.8%
COc1ccc(NC(=O)CCN2CCN(c3cccc(Cl)c3)CC2)cc1 -8.25%
COc1cccc(CCNC(=O)c2c(O)nc3c(C)cccn3c2=O)c1 -2.07%
CC(Sc1nnc2ccc3ccccc3n12)C(=O)Nc1ccc(Cl)cc1 (centres undefined) -0.462%
Cc1nc2ccn(Cc3ccccc3)c(=O)c2cc1C(=O)N1CCN(c2ccc(F)cc2)CC1 -18.7%
NCCS(=O)(=O)O
COCCc1nn2c(=O)cc(COC(=O)C(c3ccccc3)c3ccccc3)nc2s1 -9.31%
CCOC(=O)c1cnc2cc(-c3ccc(OCC)cc3)nn2c1-c1ccccc1 -13.3%
Cc1cc(NC(=O)n2ncc3c(C)cccc32)ccc1Br 70.1%
CCCCS(=O)(=O)N[C@@H](Cc1ccc(OCCCCC2CCNCC2)cc1)C(=O)O 4.11%
CCn1cc(C(=O)O)c(=O)c2cnc(N3CCNCC3)nc21 7.16%
COc1ccc(NC(=O)CSc2nccn2Cc2ccc3c(c2)OCO3)cc1 -17.9%
Cc1ccc(-n2c3c(cc(C(=O)Nc4ccccc4C(N)=O)c2=O)C(=O)CC(C)(C)C3)cc1 -20.1%
COc1ccc(C2=Nc3ccccc3NC(c3cccs3)=N2)cc1 -22.2%
Cc1cc(C)c(NC(=O)CSc2ccc(-c3ccccn3)nn2)c(C)c1 4.01%
CN(C)CCNC(=O)CN1C(=O)COc2ccc(S(=O)(=O)N3CCCC3)cc21 -13.1%
CCOc1ccccc1NC(=O)c1c(NC(=O)COc2ccccc2)sc2c1CCCC2 -7.87%
COc1cccc(NC(=O)CCC(=O)N2Cc3ccccc3Oc3ncccc32)c1 -2.8%
Cc1ccc(CNC(=O)CSc2nc3ccsc3c(=O)n2Cc2ccccc2F)cc1 -1%
CC(C)OC(=O)c1cccc(NC(=O)Cn2nnc3sc4c(c3c2=O)CCCC4)c1 0%
Cc1ccc(S(=O)(=O)N2CCN(C(=O)c3cc(-c4ccc(Br)cc4)n[nH]3)CC2)c(C)c1 -26.7%
Cc1c(Cl)cccc1-n1ncc(C(=O)N2CCN(c3ncccn3)CC2)c1C1CCN(C(=O)OC(C)(C)C)CC1 -23.7%
Cc1ccc(NC(=O)C(Cc2ccccc2)NS(=O)(=O)c2ccc3c(c2)c(=O)n(C)c(=O)n3C)c(C)c1 (centres undefined) -4.8%
